Laboratory results: ChEMBL document CHEMBL4888484, “Replenishing the malaria drug discovery pipeline: Screening and hit evaluation of the MMV Hit Generation Library 1 (HGL1) against asexual blood stage Plasmodium falciparum ,using a nano luciferase reporter read-out” (2022)
Several values for one entry are separate records, joined by “and”; a condition that tells them apart may be missing. Identical values can stand only once. The whole screen tested about 150,000 compounds, of which about 540 (0.36%) showed an effect of 50% or more. The list shows a part of the results.

System: Plasmodium falciparum
Assay: Primary screen in NF54 nanoGlo assay, in single point, at 2uM, 72h; a lower Z score goes with more inhibition
Assay type: functional, Erythrocyte
Conditions: timepoint 72 hour

| Structure (SMILES) | % Inhibition [%] | Z score | % Inhibition (2 µM) |
| --- | --- | --- | --- |
| Cc1ccc2[nH]nc(CNC(=O)[C@H]3CCOC3)c2c1 | -16 | 1.51 | – |
| NC(=O)c1c(NC(=O)c2cc(-c3ccccc3Cl)nc3ccccc23)sc2c1CCCCC2 | 7 | -0.79 | – |
| CC(C)(O)[C@H]1CCN(Cc2[nH]c3ccccc3c2Cl)C1 | -4 | 0.35 | – |
| CCCCc1nc(CN2CCC(CCC(=O)NC[C@H]3CCCO3)CC2)c[nH]1 | -24 | 2.18 | – |
| Cc1cc(C(=O)Nc2ccc([C@H]3OCC(=O)N[C@@H]3CO)cc2)no1 | -1 | 0.15 | – |
| Cc1ccc(S(=O)(=O)N2CCc3c(c(-c4nc(-c5ccccc5)no4)nn3C)C2)cc1Cl | -7 | 1.16 | – |
| CCn1nc(C(=O)O)c2c1CC[C@H](N1CCN(c3nc(C)cc(C)n3)CC1)C2 | -9 | 1.33 | – |
| O=C(NCCOCc1ccccc1)c1ccc(CN2CCCC2)o1 | -8 | 0.85 | – |
| CCCCN(Cc1ccco1)c1ncnc2oc(C)nc12 | 13 | -1.7 | – |
| CCc1nnc(CN[C@H]2CCCC[C@H]2CC(F)(F)F)n1C | 7 | -0.95 | – |
| COc1cccc(C2CC(O)CN2C(=O)c2cnn3ccc(C)nc23)c1 (stereo not given) | -5 | 0.98 | – |
| CN(Cc1noc(-c2ccccc2)n1)C(=O)c1nc2ccc(F)cc2[nH]1 | -8 | 1.07 | – |
| CCc1cc([C@@H]2CCCN2C(=O)Cc2cccs2)on1 | -5 | 0.64 | – |
| CCC1CCN(C(=O)CS(=O)(=O)NC)CC1 | 13 | -1.51 | – |
| COc1cn(CC(=O)Nc2n[nH]c(Cc3ccc(F)cc3)n2)c(C)cc1=O | -11 | 1.48 | – |
| Cc1nc(C(=O)N2CCN([C@@H](C)c3ccccc3F)CC2)c[nH]1 | 1 | -0.22 | – |
| CC(C)(C)c1cnc(CCC(=O)NCCc2cc(F)ccc2F)o1 | 4 | -0.49 | – |
| O=C1N[C@H](Cc2ccc(O)cc2)C(=O)N2C[C@H](O)C[C@@H]12 | -2 | 0.42 | – |
| CO[C@@H](C(=O)NCCc1nc(C(C)C)nn1C)c1ccccc1 | -11 | 1.68 | – |
| Cc1cc(CNc2nc(NCc3cc(C)no3)nc(C3CCCC3)n2)on1 | 7 | -1.14 | – |
| Cc1nnsc1C(=O)N[C@@H](C)Cc1ccco1 | -3 | 0.44 | – |
| O=C(Cc1nc(Cc2ccc(F)cc2)n[nH]1)Nc1ccc2c(c1)OCO2 | -8 | 1.04 | – |

| Structure (SMILES) | % Inhibition [%] | Z score | % Inhibition (2 µM) |
| --- | --- | --- | --- |
| CN(C)C(=O)c1cncc(-c2cnc3ccccc3c2)n1 | -4 | 0.5 | – |
| CC(=O)Nc1nc(C(=O)N2CCNC(=O)C[C@@H]2C)cs1 | 1 | -0.15 | – |
| Cc1cccc(N2CC[C@@]3(CCCN(C4CCCCC4)C3=O)C2)n1 | -15 | 2.86 | – |
| O=C1C2C(c3ccccc3)NC3(C(=O)Nc4ccccc43)C2C(=O)N1c1ccc(Cl)cc1 (stereo not given) | 33 | -3.75 | – |
| Cc1ccc(-n2nc(-c3noc(C(=O)NCCCN4CCC[C@H](C)C4)n3)c(=O)n(C)c2=O)cc1 | 9 | -1.58 | – |
| CC(=O)N1CCC([C@@H]2CN(C(=O)c3cccs3)C[C@H]2CO)CC1 | 0 | -0.02 | – |
| COc1ccc(-c2noc(-c3cn(Cc4ccc(NC(=O)c5ccccc5C)cc4)cn3)n2)cc1 | -6 | 0.81 | – |
| NC(=O)C1CCCC1NC(=O)CCCn1ccc2cc(Cl)ccc21 (stereo not given) | -7 | 0.97 | – |
| CC(C)(Cc1ccccc1)NS(C)(=O)=O | 1 | -0.1 | – |
| CC1=NO[C@](C)(C(=O)NCc2cccnc2-n2cnc3ccccc32)C1 | -7 | 0.69 | – |
| O=C(CS(=O)(=O)c1ccc2c(c1)S(=O)(=O)N=CN2)Nc1ccccc1C(F)(F)F | 6 | -0.84 | – |
| OC(COCC1CC2CCC1C2)Cn1cnc2ccccc21 (stereo not given) | – | – | -7% and 3% |
| COc1ccc(C2(CNC(=O)c3ccc4c(c3)OCO4)CCOCC2)cc1OC | -8 | 0.96 | – |
| CCNc1ccc(Br)cc1NC(=O)[C@@H]1CNC(=O)C1 | -11 | 1.29 | – |
| Cc1nc(-c2cccs2)sc1C(=O)Nc1nnc(C(F)(F)F)[nH]1 | -2 | 0.3 | – |
| Cn1c(CCNC(=O)NC2CC3CCC2O3)nc2cc(Cl)ccc21 (stereo not given) | -16 | 1.31 | – |
| O=C(c1cccc2ccccc12)N1CC(N2C(=O)CNC2=O)C1 | -4 | 0.84 | – |
| Cc1cc(OC(F)F)ccc1NC(=O)c1cc(-c2cnn(C)c2)nc2onc(C)c12 | 31 | -3.56 | – |
| COc1cc(OC)c(NC(=O)NCCn2c(-c3ccc(C)cc3)nc3ccccc32)cc1Cl | -10 | 1.33 | – |
| CC(CC1CCOC1)Nc1ccncc1C(N)=O (stereo not given) | -12 | 1.26 | – |
| CC1CCN(c2nc3c(c(Oc4ccc(F)cc4)n2)CN(C(=O)c2ccccc2Cl)CC3)CC1 | -12 | 1.96 | – |
